# Data: a collection of fitness landscapes (doi:10.1126/science.1257360)
# The other results are listed elsewhere or left out.
# B1: PhoQ; a variant is named by its letters at X, in order, P23837 (parent)
# chain: MKKLLRLFFPLSLRVRFLLATAAVVLVLSLAYGMVALIGYSVSFDKTTFRLLRGESNLFYTLAKWENNKLHVELPENIDKQSPTMTLIYDENGQLLWAQRDVPWLMKMIQPDWLKSNGFHEIEADVNDTSLLLSGDHSIQQQLQEVREDDDDAEMTHSVAVNVYPATSRMPKLTIVVVDTIPVELKSSYMVWSWFIYVLSANLLLVIPLLWVAAWWSLRPIEALAKEVRELEEHNRELLNPATTRELTSLVRNLNRLLKSERERYDKYRTTLTDLTHSLKTPLXXLQXXLRSLRSEKMSVSDAEPVMLEQISRISQQIGYYLHRASMRGGTLLSRELHPVAPLLDNLTSALNKVYQRKGVNISLDISPEISFVGEQNDFVEVMGNVLDNACKYCLEFVEISARQTDEHLYIVVEDDGPGIPLSKREVIFDRGQRVDTLRPGQGVGLAVAREITEQYEGKIVAGESMLGGARMEVIFGRQHSAPKDE
# Variants of: B1
# Assay: enrichment ratio after two sorts for PhoP signalling (ratio (wild type AVST 3.29)); higher = more functional
# Details: with PhoP (E. coli)
row,Variant,enrichment ratio
1,HWMC,≤ 0.25
2,NMPR,≤ 0.25
3,TQNS,12.8
4,RMRT,≤ 0.25
5,VCAQ,≤ 0.25
6,PDKG,≤ 0.25
7,VDPM,≤ 0.25
8,KCWR,≤ 0.25
9,PGYC,≤ 0.25
10,AMPT,≤ 0.25
11,AQQI,14.3
12,VCII,≤ 0.25
13,AFNM,≤ 0.25
14,TEFD,5.86
15,KKAP,≤ 0.25
16,RKMK,≤ 0.25
17,GQWD,≤ 0.25
18,YFMD,≤ 0.25
19,VYEC,≤ 0.25
20,HPLD,≤ 0.25
21,VFDS,≤ 0.25
22,VTMH,≤ 0.25
23,EPTC,≤ 0.25
24,HYHP,≤ 0.25

row,Variant,enrichment ratio
1,SKKG,≤ 0.25
2,KNHT,≤ 0.25
3,EHWM,≤ 0.25
4,FNKE,≤ 0.25
5,RIFL,≤ 0.25
6,KSHY,≤ 0.25
7,GWFE,≤ 0.25
8,PPPI,≤ 0.25
9,DFCS,≤ 0.25
10,DLMP,≤ 0.25
11,NEDP,≤ 0.25
12,YTKF,≤ 0.25
13,NCRE,≤ 0.25
14,AFNV,≤ 0.25
15,NNDV,≤ 0.25
16,PYCS,≤ 0.25
17,SDKS,≤ 0.25
18,EPPQ,≤ 0.25
19,ERYK,≤ 0.25
20,PTMA,≤ 0.25
21,QETD,≤ 0.25
22,WKGN,≤ 0.25
23,GILI,8.37
24,AFTA,≤ 0.25

row,Variant,enrichment ratio
1,LCEK,≤ 0.25
2,WTAT,≤ 0.25
3,DHHT,≤ 0.25
4,NYNT,≤ 0.25
5,GMAN,≤ 0.25
6,APWG,≤ 0.25
7,AHVN,≤ 0.25
8,RTTK,≤ 0.25
9,SEPS,≤ 0.25
10,MSLK,≤ 0.25
11,TIHC,2.24
12,LSWI,3.2
13,RRHQ,≤ 0.25
14,VLVT,≤ 0.25
15,WALK,≤ 0.25
16,WGLN,≤ 0.25
17,IYWN,≤ 0.25
18,MKKS,≤ 0.25
19,KLKL,≤ 0.25
20,FFIA,≤ 0.25
21,DYEY,≤ 0.25
22,AHVL,1.09
23,QMHQ,13.4
24,HKIT,≤ 0.25

row,Variant,enrichment ratio
1,TMIY,≤ 0.25
2,GRMD,≤ 0.25
3,KGYH,≤ 0.25
4,HPKN,≤ 0.25
5,YIVT,≤ 0.25
6,FVSR,≤ 0.25
7,WRTW,≤ 0.25
8,ERPA,≤ 0.25
9,THLN,3.21
10,EHVY,≤ 0.25
11,IMLR,≤ 0.25
12,SSQN,≤ 0.25
13,THFW,≤ 0.25
14,GCKD,≤ 0.25
15,VETM,≤ 0.25
16,HIAS,≤ 0.25
17,MKTS,≤ 0.25
18,KVNS,≤ 0.25
19,SHYY,≤ 0.25
20,GEMP,≤ 0.25
21,QEAF,≤ 0.25
22,YDLF,2.45
23,LLYL,≤ 0.25
24,SICE,1.33

row,Variant,enrichment ratio
1,EGPV,≤ 0.25
2,HWWG,≤ 0.25
3,ANVA,3.53
4,LNRL,0.355
5,HMGQ,≤ 0.25
6,PWVY,≤ 0.25
7,QVGM,0.458
8,NKIF,≤ 0.25
9,WFPE,≤ 0.25
10,RIET,≤ 0.25
11,KDMY,≤ 0.25
12,QSGS,7.64
13,RIEV,≤ 0.25
14,TCSK,13.7
15,ANRW,≤ 0.25
16,PVYA,≤ 0.25
17,VHTH,≤ 0.25
18,NHKN,≤ 0.25
19,HFYS,≤ 0.25
20,LKCA,≤ 0.25
21,HHYK,≤ 0.25
22,MLTF,1.58
23,SASI,6.84
24,YFQC,≤ 0.25

row,Variant,enrichment ratio
1,LILR,0.431
2,MADQ,≤ 0.25
3,QLYQ,2.56
4,FIEP,≤ 0.25
5,QDCT,≤ 0.25
6,LIAC,≤ 0.25
7,PHFN,≤ 0.25
8,SPHK,≤ 0.25
9,KPSS,≤ 0.25
10,YMRG,≤ 0.25
11,QSPR,≤ 0.25
12,QKVI,≤ 0.25
13,RLPE,≤ 0.25
14,SIFS,≤ 0.25
15,KQLV,≤ 0.25
16,WYKM,≤ 0.25
17,TCRP,≤ 0.25
18,AYYL,≤ 0.25
19,VFHC,≤ 0.25
20,TLRI,0.734
21,DWMP,≤ 0.25
22,RDSF,≤ 0.25
23,NQWV,≤ 0.25
24,LYHE,≤ 0.25

row,Variant,enrichment ratio
1,PCDS,≤ 0.25
2,KTML,≤ 0.25
3,THFC,≤ 0.25
4,KLSM,≤ 0.25
5,MSMI,23.5
6,HSWN,≤ 0.25
7,KMWL,≤ 0.25
8,KMLP,≤ 0.25
9,VDEY,≤ 0.25
10,DLTH,≤ 0.25
11,FWSP,≤ 0.25
12,PCHW,≤ 0.25
13,AGKL,≤ 0.25
14,QTGV,≤ 0.25
15,DANT,≤ 0.25
16,ALGK,≤ 0.25
17,EQCR,≤ 0.25
18,AYLD,≤ 0.25
19,IYGW,≤ 0.25
20,PLAM,≤ 0.25
21,IDQC,≤ 0.25
22,YLCD,0.253
23,EMSF,≤ 0.25
24,KQTW,≤ 0.25

row,Variant,enrichment ratio
1,SKCD,≤ 0.25
2,VQSS,≤ 0.25
3,YCLY,≤ 0.25
4,TIQD,6.42
5,QCWS,0.731
6,LEFA,1.62
7,TRCD,6.93
8,IYPH,≤ 0.25
9,HASC,≤ 0.25
10,YDRC,≤ 0.25
11,SNGH,23.3
12,LAKT,≤ 0.25
13,WHIW,≤ 0.25
14,KPCP,≤ 0.25
15,VPQM,≤ 0.25
16,LGTH,≤ 0.25
17,LVQD,≤ 0.25
18,FTGI,≤ 0.25
19,PVYE,≤ 0.25
20,DRYQ,≤ 0.25
21,HQSG,≤ 0.25
22,PASK,≤ 0.25
23,LPLS,≤ 0.25
24,SKFS,≤ 0.25

row,Variant,enrichment ratio
1,IKPK,≤ 0.25
2,CLVM,≤ 0.25
3,GPHG,≤ 0.25
4,VNLN,2.67
5,QTYF,9.42
6,HTAI,≤ 0.25
7,YESL,≤ 0.25
8,KDGV,≤ 0.25
9,SWYD,≤ 0.25
10,WPRH,≤ 0.25
11,NEPN,≤ 0.25
12,FYRI,≤ 0.25
13,DLNF,≤ 0.25
14,GSQR,≤ 0.25
15,HTYN,≤ 0.25
16,DYWN,≤ 0.25
17,NIHT,≤ 0.25
18,MDFM,≤ 0.25
19,SSFN,0.377
20,QQRW,≤ 0.25
21,LVLV,≤ 0.25
22,QTYY,≤ 0.25
23,QQQK,≤ 0.25
24,AHCT,≤ 0.25

row,Variant,enrichment ratio
1,YDYR,≤ 0.25
2,KGYL,≤ 0.25
3,KESK,≤ 0.25
4,RCGV,≤ 0.25
5,YCTR,≤ 0.25
6,ETYC,≤ 0.25
7,QGMT,≤ 0.25
8,PNPA,≤ 0.25
9,WMRD,≤ 0.25
10,SSKH,≤ 0.25
11,WNMT,≤ 0.25
12,QNDF,≤ 0.25
13,VHSR,≤ 0.25
14,NRPA,≤ 0.25
15,PGLM,≤ 0.25
16,DWNH,≤ 0.25
17,DSYH,≤ 0.25
18,KKWI,≤ 0.25
19,VTPQ,≤ 0.25
20,FASL,≤ 0.25
21,LPHC,≤ 0.25
22,LHQQ,≤ 0.25
23,HRVM,≤ 0.25
24,CIWL,≤ 0.25

row,Variant,enrichment ratio
1,YYQG,≤ 0.25
2,GFEI,≤ 0.25
3,PCLA,≤ 0.25
4,YRRQ,≤ 0.25
5,GDKF,≤ 0.25
6,GCCV,≤ 0.25
7,RVDY,≤ 0.25
8,HQPS,≤ 0.25
9,AEFH,1.2
10,FWNM,≤ 0.25
11,ARTM,0.376
12,IVML,≤ 0.25
13,GLAM,10.7
14,GPIS,≤ 0.25
15,RPRE,≤ 0.25
16,YAAK,≤ 0.25
17,VEPH,≤ 0.25
18,PGNW,≤ 0.25
19,NWLS,≤ 0.25
20,YHGG,≤ 0.25
21,NIRW,≤ 0.25
22,ASCV,18.9
23,MPLD,≤ 0.25
24,GKMH,≤ 0.25

row,Variant,enrichment ratio
1,WDLQ,≤ 0.25
2,DEVQ,≤ 0.25
3,VDIM,≤ 0.25
4,RCSV,≤ 0.25
5,VIWA,≤ 0.25
6,TIGA,9.59
7,QKLQ,≤ 0.25
8,NFIE,≤ 0.25
9,DVCV,≤ 0.25
10,DVGS,≤ 0.25
11,RFFC,≤ 0.25
12,MMKC,≤ 0.25
13,LRRN,≤ 0.25
14,WKFV,≤ 0.25
15,SSML,23.6
16,NSCC,≤ 0.25
17,FDSM,≤ 0.25
18,QMGD,≤ 0.25
19,MIYN,9.42
20,DEGI,≤ 0.25
21,NQFN,≤ 0.25
22,QSFA,2.36
23,PFSA,≤ 0.25
24,HYQR,≤ 0.25

row,Variant,enrichment ratio
1,INGE,≤ 0.25
2,SIPG,≤ 0.25
3,TVGG,16.2
4,NRSH,≤ 0.25
5,SAYI,0.312
6,YARN,≤ 0.25
7,VGNG,≤ 0.25
8,NSKL,≤ 0.25
9,RTSD,≤ 0.25
10,INQW,≤ 0.25
11,WLHH,≤ 0.25
12,ANAT,17.7
13,SISE,12.6
14,NRSK,≤ 0.25
15,FKVS,≤ 0.25
16,SMEI,≤ 0.25
17,FFSF,≤ 0.25
18,QDFE,≤ 0.25
